Experimental findings from the supplement of paper PMC10126150 are described below.

In the data set the test system is ATP. Nature of the data set: switch fluorescence ratio, 500 uM ATP over buffer (Cy3 cluster intensity, sum of 5 cycles each) (fold (ratio)); higher = stronger signal-on switching upon ATP binding; sequences stand for … in TCGTCGGCAGCGTCAGATGTGTATAAGAGACAGTTTTTTTTTTTTTTTTTTTTTTTTT…TC. The conditions noted are these: aptamer strand: ATP DNA aptamer (quencher-CACCTGGGGGAGTATTGCGGAGGAAGG + anchor), 100 nM annealed; ATP concentration: 500 uM; one replicate. The method in brief:
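Between each of five buffer/ATP cycles, the flow-cell was stripped with NaOH and re-annealed. Each cycle imaged Cy3-labelled switching-strand clusters, annealed to 100 nM quencher-labelled ATP aptamer on a modified Illumina MiSeq flow-cell, first in selection buffer and then after 15 min with 500 uM ATP at 22 °C. The fluorescence ratio is summed target-cycle over summed buffer-cycle Cy3 intensity per cluster, averaged per switch-domain sequence, with clusters outside 100-1000 RFU excluded.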

Sequences with one replicate were seen in a single cluster, so their values are uncertain.
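Note: ATP exposure 15 min at 22 °C before imaging.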

Regarding CGCCAGTCAC, the switch fluorescence ratio was 1.18.
The value for TCGTCGCACG was 0.99; that for TCAAAGCTTA was 1.02.
To CGAGGGGAGA belongs 1.02; to CTATTTAATC, 1.04; to TGGGGTGCTT, 0.999.
To ATGGGGTTCC belongs 0.997.
Consider TCAAGTCTCC, for which the switch fluorescence ratio was 0.997.
For TTGGTCGGCC, the switch fluorescence ratio was determined as 0.957.
The value for ATTGCTTTCC was 1.28; that for TCGCCCGGA was 1.
To GATGCAGGGG belongs 2.3; to GGCTTTGTCT, 0.958.
To ACGTCACTGA belongs 1.49.
Take GGGGCTGATC: the switch fluorescence ratio was found to be 1.09.
The value for CATTGGTCAC was 1.01.
On to ACTAAAAAC, for which the switch fluorescence ratio came out at 0.993.
To TGATTCGATA belongs 1.01; to CCACGTGAG, 1.07.
On to TCATACATCC, for which the switch fluorescence ratio came to 1.
The value for AGATCCCCGG was 1.03; that for GCGTGAGCTG was 0.963.
The value for TCGTCGAGCT was 1.02.
With ATAAATCCGG, the switch fluorescence ratio is 1.03.
CCTGAGGGGC: the switch fluorescence ratio worked out at 1.08.
The value for AACGAAGCT was 1.41; that for GCACATCTGC was 1.01; that for CAAAACTCGC was 0.918.
Turning to ACTCTGTGTG, the switch fluorescence ratio was found to be 1.04.
To GCGAGAGGAC belongs 0.886; to GCTAAGTTTT, 0.964; to CAACTCAGTG, 1.
The value for TGGGATGCCC was 0.992.
Regarding ACAGACACGG, the switch fluorescence ratio turned out to be 1.04.
To AACCTCTATG belongs 1.01; to TGTTTGGCAA, 1.01; to GAGATCGAAC, 1.05.
The value for TGAAGGGTTA was 0.958; that for GACATTGGAT was 1; that for CTGCTCAGAA was 0.955.
To GCAATTTTAA belongs 0.973; to CCAGGGCATG, 1.06; to AATTACCACA, 1.06.
As to TCCTGAAAAA, the switch fluorescence ratio came out at 1.04.
The value for ACTATTTGCT was 0.97.
Regarding ACAATAGTT, the switch fluorescence ratio came to 1.03.
On to ATAGTTGTTA, for which the switch fluorescence ratio amounted to 1.04.
To AGTCTGAATG belongs 0.956; to CGAGTAAAAA, 1.09; to CCGAGCTAGT, 2.69.
To CAGAGCCTCA belongs 0.994.
To GTAGCACGTG belongs 1.02; to CAGATCCGGC, 1.
In the case of GTGAAACTAT, the switch fluorescence ratio was 0.975.
As to AAAGTTTGC, the switch fluorescence ratio is 1.02.
Consider TAACGAGTTG, for which the switch fluorescence ratio was 0.987.
As to GGCGTGCCAG, the switch fluorescence ratio stood at 0.969.
Regarding ATGCTTGGTG, the switch fluorescence ratio stood at 1.04.
To GGGGCGCAAC belongs 3.54; to ATGGGTGAA, 0.988.
CATGTTTCTT: the switch fluorescence ratio was determined as 1.06.
With TAAGTCTTCC, the switch fluorescence ratio came to 1.63.
To TTCCACAGGT belongs 2.14.
The value for AGCAACTACC was 3.46.
To GCCTTCGGTG belongs 1.04; to TTATGGTT, 1.01.
For AAAGCTGCTC, the switch fluorescence ratio was 1.06.
